34 molecules from ChEMBL document CHEMBL1201862, “PubChem BioAssay data set” (2004) can be followed below.

Each structure is given as a SMILES string.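 Tested at 5 concentrations; 48 h exposure; 96-well plates; endpoints linearly interpolated, else capped at highest concentration. The concentration for 50% growth inhibition is given as GI50.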 The source made the active and inactive calls. Rule as the data show it: active = GI50 up to about 1.1 µM and inactive = higher.

The test concerns NCI-H322M. In words: inhibition of tumour cell growth, NCI panel, 48 h.
For `O=C1OC(c2ccccc2)=N/C1=C\c1ccccc1`, the GI50 is inactive: > 100 µM.

As to `O=C(O)C1Cc2[nH]cnc2CN1` (centres undefined), the GI50 was inactive: > 100 µM.

Take `N#CCCN(CCC#N)c1ccc(/C=C2\N=C(c3cc([N+](=O)[O-])ccc3Cl)OC2=O)cc1`: the GI50 was inactive: 95.1 µM.

For `O=c1[nH]nc(-c2ccccc2)n1/N=C/c1ccncc1`, the GI50 is inactive: > 100 µM.

As to `CSc1nc2ccccc2c(=O)n1-c1cccc(C)c1`, the GI50 is inactive: > 100 µM.

For the molecule `COc1ccc2c(c1)CCCc1cn[nH]c1-2`, the GI50 was inactive: > 100 µM.

Regarding `COC(=O)/C=C/CC(=O)NS(C)(=O)=O`, the GI50 is inactive: > 10 µM.

Regarding `CCc1cccc(=O)c([O-])c1.CCc1cccc(=O)c([O-])c1.[Bi+3].[Cl-]`, the GI50 is inactive: 5.56 µM.

For `c1ccc2c3nnc(c2c1)SCCCSc1nnc(c2ccccc12)SCCCS3`, the GI50 was inactive: > 100 µM.

In the case of `COc1ccc(-c2[nH]c3c4c(nc5c(c24)C(=O)CC(C)(C)C5)CC(C)(C)C3)cc1`, the GI50 is inactive: > 100 µM.

For the molecule `COc1ccc2c(c1)[n+]([O-])c(/C(C)=N/NC(=O)c1ccccc1O)c(C)[n+]2[O-]`, the GI50 was inactive: > 100 µM.

Consider `N/N=C(\CC1OC(=O)c2ccccc21)c1ccco1` (centres undefined), for which the GI50 is inactive: > 100 µM.

Regarding `[N-]=[N+]=Nc1cc(=O)[nH]nc1-c1ccccc1`, the GI50 was inactive: > 100 µM.

On to `COc1cc2c(cc1O)NC(=S)[C@@H]1CCCN1C2=O`, for which the GI50 is inactive: > 100 µM.

On to `N#Cc1nc(CCCCCN2C(=O)c3ccccc3C2=O)oc1N`, for which the GI50 is inactive: > 100 µM.

For the molecule `Cc1ccc(-c2cs/c(=N\c3ccccc3)n2NC(=O)c2ccncc2)cc1`, the GI50 was inactive: 69.8 µM.

Turning to `Nc1nc(Cl)cc(NCC2(O)CC(CO)C2)n1` (centres undefined), the GI50 was inactive: > 100 µM.

As for `Cc1csc2n(C)c(=O)c3ccccc3[n+]12`, the GI50 is inactive: > 100 µM.

For `O=C1CSC(c2cccc(Oc3ccccc3)c2)N1c1ccc(Cl)cc1` (centres undefined), the GI50 is inactive: 71.3 µM.

On to `COc1ccc2ccccc2c1C1OC(=O)c2ccccc21` (centres undefined), for which the GI50 is inactive: > 100 µM.

In the case of `S=C(c1c[nH]c2ccccc12)N1CCN(c2ccccc2)CC1`, the GI50 was inactive: > 100 µM.

Consider `COc1cc(/C=C(\NC(=O)c2ccccc2)c2nc3cncnc3[nH]2)cc(OC)c1OC`, for which the GI50 is inactive: > 100 µM.

Regarding `CC(C)NCC(O)c1cc(OCc2ccccc2)c(OCc2ccccc2)cc1NC(=O)CCC(=O)O` (centres undefined), the GI50 was inactive: 15.2 µM.

Take `CN(C)c1ccc(/C=c2/c3ccccc3n3c2cc(C24CC5CC(CC(C5)C2)C4)[n+]3C)cc1`: the GI50 is active: 0.37 µM.

Regarding `NC1=NCN(C2OC(CO)C(O)C2O)C(=O)N1` (centres undefined), the GI50 was inactive: 11.1 µM.

Regarding `COc1ccc(N2C(=O)C3c4[nH]c5ccc([N+](=O)[O-])cc5c4C4CCC(C(C)(C)C)CC4C3C2=O)cc1` (centres undefined), the GI50 is inactive: 25.4 µM.

For the molecule `CCOc1ccc2nc3cc(/N=N/c4ccc(N)nc4N)ccc3c(N)c2c1`, the GI50 is inactive: 2.26 µM.

As for `COc1cc(NS(C)(=O)=O)ccc1Nc1ccnc2ccc3[nH]ccc3c12`, the GI50 was inactive: 11.8 µM.

As to `COc1ccc(/C(Cl)=C(\C=O)c2cc(OC)c(OC)c(OC)c2)cc1OC`, the GI50 was inactive: 30.8 µM.

For `BrC1=CC=C2NCCCCCC/N=C3\C=CC(Br)=CC=C3NCCCCCC/N=C\2C=C1`, the GI50 is inactive: > 25.5 µM.

Consider `Nc1nc(SCc2ccc([N+](=O)[O-])cc2)nc2c1ncn2C1OC(CO)C(O)C1O` (centres undefined), for which the GI50 was inactive: > 100 µM.

On to `O=S(=O)(O)c1ccc2c(/N=N\c3ccc(F)cc3)c(O)c(S(=O)(=O)O)cc2c1`, for which the GI50 is inactive: > 100 µM.

Consider `COC(=O)c1ccc2c(c1)C(NC(C)=O)CCc1cc(OC)c(OC)c(OC)c1-2` (centres undefined), for which the GI50 is active: 0.0198 µM.

Turning to `NC1=NC(=O)[C@H](CSCc2ccccc2)N1C(=O)OCc1ccccc1`, the GI50 was inactive: > 100 µM.
